These results are taken from PubChem BioAssay AID488969 (Vanderbilt High Throughput Screening Facility, 2010).

Over roughly 110,000 compounds, “z-score” has its median near -0.1; the highest 2% begin near 2. This is one part of the list. Activity calls are given as the source filed them.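 The calls were made as follows: active = z-score in the third read window above 3 or below -3; inactive = the rest.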

The test concerns the target Metabotropic glutamate receptor 8 (Rattus norvegicus) (UniProt P70579). Briefly: mGluR8 Gi/Go-coupled signaling modulation – cell-based, rat, thallium flux, HTS, primary screen (AID 488969). The following applies: HEK293 rat mGluR8, GIRK (G protein-gated inwardly rectifying potassium channel) thallium flux, FluoZin2; at 10 µM; stronger effect = higher value; submaximal glutamate (EC20) added with thallium.
Chain of UniProt P70579 (P70579 whole entry, looked up): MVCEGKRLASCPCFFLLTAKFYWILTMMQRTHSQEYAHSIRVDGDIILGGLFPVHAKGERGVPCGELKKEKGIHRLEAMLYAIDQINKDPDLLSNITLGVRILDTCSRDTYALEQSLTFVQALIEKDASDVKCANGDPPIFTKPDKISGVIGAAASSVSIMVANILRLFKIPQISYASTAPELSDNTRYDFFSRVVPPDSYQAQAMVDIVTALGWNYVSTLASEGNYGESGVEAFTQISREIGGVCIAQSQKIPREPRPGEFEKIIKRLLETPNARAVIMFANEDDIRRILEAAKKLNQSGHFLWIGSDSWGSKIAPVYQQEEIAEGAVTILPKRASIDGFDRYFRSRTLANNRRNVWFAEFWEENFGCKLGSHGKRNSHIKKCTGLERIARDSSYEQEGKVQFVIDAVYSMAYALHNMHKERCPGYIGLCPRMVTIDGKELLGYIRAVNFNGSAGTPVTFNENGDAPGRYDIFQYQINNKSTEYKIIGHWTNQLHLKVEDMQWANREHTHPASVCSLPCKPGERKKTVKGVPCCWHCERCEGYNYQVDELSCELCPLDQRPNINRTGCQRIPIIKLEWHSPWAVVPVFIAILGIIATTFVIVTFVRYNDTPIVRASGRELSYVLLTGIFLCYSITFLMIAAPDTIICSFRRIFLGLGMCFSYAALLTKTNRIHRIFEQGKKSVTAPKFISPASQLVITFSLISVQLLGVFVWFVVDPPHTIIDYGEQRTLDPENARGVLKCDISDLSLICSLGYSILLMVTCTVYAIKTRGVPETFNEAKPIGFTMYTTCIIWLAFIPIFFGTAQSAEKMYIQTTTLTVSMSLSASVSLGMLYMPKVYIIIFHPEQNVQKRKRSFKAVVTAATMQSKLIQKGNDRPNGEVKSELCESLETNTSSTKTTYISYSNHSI
Take `O=C(CCCC(=O)N(CC(=O)NC1CCCCC1)Cc1ccccc1)Nc1ccccn1`: the z-score was -0.717.
Next, `Cc1csc(NC(=O)CSc2nncn2C)n1`: 0.18; `COc1cc2nc(N3CCNCC3)nc(N)c2cc1OC`: 0.304.
For `CCCCn1nc2cc(C(=O)NCc3cc(C(F)(F)F)cc(C(F)(F)F)c3)ccc2c1OC` the value was -0.00486.
Next, `COc1cnn(-c2ccccc2)c(=O)c1SCc1ccc(Cl)c(Cl)c1`: -0.358.
Compound `CC(CN1CCOCC1)c1ccccc1` (stereo unspecified) had a z-score of 1.96.
For `Cc1cc(Cl)cc(Cl)c1OCCOc1cccc2cccnc12` the value was -0.157.
Next, `O=C(NCCCNC(=O)C(F)(F)C(F)F)C(F)(F)C(F)F`: -0.142.
With `Cc1cc(C)c(OCC(=O)Nc2nnn(C)n2)c(Br)c1`, the z-score was -0.637.
Next, `COc1ccc(C(=O)/C=C/c2cccs2)c(OC(=O)N2CCOCC2)c1`: -0.0631.
For `C/C(=N\NC(=O)Cc1cccn1C)c1cccc2ccccc12` the value was -0.3.
On to `O=C(NCc1ccco1)c1cccn2c(=O)c3cc4ccccc4cc3nc12`, for which the z-score was 0.148.
Next, `O=C(CCCNC(=O)/C(=C/c1ccc(F)cc1)NC(=O)c1ccccc1)OCc1ccccc1`: -1.02; `Nc1cc(-c2nc3ncccc3o2)ccc1Cl`: -0.0537.
Next, `COc1ccc(S(N)(=O)=O)cc1C(=O)NCCCN1CCN(c2cccc(Cl)c2)CC1`: -1.11; `Cc1sc2c(c1C)CN(Cc1ccncc1)CN2C(=O)c1ccco1`: -0.32; `CCN(CC(=O)Nc1cccc(OC)c1)C(=O)c1ccc(C)s1`: -0.139.
Regarding `COc1ccc(OC)c(C2CC(=O)Nc3cc(OC)c(OC)c(OC)c32)c1` (stereo unspecified), the z-score was -0.23.
For the compound `COc1ccc(/C=C(\C#N)C(=O)OCC(=O)NCc2ccc(Cl)cc2)cc1`, the z-score was -0.178.
Next, `O=c1c(/C=C(\O)c2ccccc2)nc2ccccc2n1-c1ccccc1`: -0.452.
For `O=C(C1CCCN(S(=O)(=O)c2cccnc2)C1)N1CCN(c2ccccn2)CC1` (stereo unspecified) the value was -0.29.
Next, `CC1CC(=O)C=C(O)C1C(=O)OC(C)(C)C` (stereo unspecified): 0.0252.
On to `COc1cc2c3c(c1OC)C1(C=CC(=NO)C=C1)CC3N(C(C)=O)CC2` (stereo unspecified), for which the z-score was -0.0199.
For `CS(=O)(=O)N(CCc1ccccc1)CC(=O)NCc1ccc2c(c1)OCO2` the value was active: -7.82.
As to `O=C(CN(CCc1ccccc1)S(=O)(=O)c1ccc(Cl)cc1)N/N=C/c1ccc2c(c1)OCO2`, the z-score is -0.644.
Next, `COc1ccc(N2CCN(c3oc(-c4ccccc4OC)nc3C#N)CC2)cc1`: -1.28; `CCN(C(=O)CN1CCN(c2ccccc2OC)CC1)c1c(N)n(Cc2ccccc2)c(=O)[nH]c1=O`: 0.391; `CC(=O)NCC(=O)OC(C)C(=O)Nc1ccc(C(C)=O)cc1` (stereo unspecified): 0.409.
Next, `COc1ccc(NC(=O)CSc2nnc(-c3ccccc3C)n2C)cc1`: -0.332.
With `Cc1ccc(C(=O)NCC2CCCO2)o1` (stereo unspecified), the z-score was determined as 0.996.
Next, `CC(=O)c1ccc(N2CCN(c3ccc(C(F)(F)F)cn3)CC2)cc1`: 0.079; `O=C(Cc1cccs1)N1CCCC(c2nc(-c3ccc(S(=O)(=O)N4CCCC4)cc3)no2)C1` (stereo unspecified): -0.767; `CC(/C=N/NC(=O)CSc1ccccn1)=C\c1ccc(C(C)C)cc1`: -0.206.
For `Clc1ccccc1OCc1nc(-c2ccc(Br)o2)no1` the value was -0.648; for `COc1ccc(CC(=O)Nc2nc3n(n2)C(c2ccccc2)CC(=O)N3)cc1OC` (stereo unspecified), 0.131.
Next, `CCCn1c(C(C)NC(=O)c2ccccc2)nc2ccccc21` (stereo unspecified): -0.0102; `N=c1n(CC(=O)c2ccc([N+](=O)[O-])cc2)c2ccccc2n1Cc1ccc(Cl)cc1`: 0.351.
Take `Clc1cccc(N=C2NN=C(c3ccc4c(c3)OCCO4)CS2)c1`: the z-score was found to be 0.489.
Next, `CS(=O)(=O)N1CCc2ccccc2C1`: 0.166; `C=CC[n+]1c(-c2ccc(OC)c(OC)c2)csc1NNC(=O)Nc1ccccc1`: -0.698; `CC(C)(C)N/N=C1\CC(c2ccccc2)Oc2ccccc21` (stereo unspecified): 0.00592.
`COc1ccc(CNC(=O)CCCn2c(SCC#N)nc3cc4c(cc3c2=O)OCO4)cc1`: the z-score is -0.105.
Next, `Cn1c(=O)c2c(ncn2CC(=O)N/N=C/c2ccc(Br)s2)n(C)c1=O`: 2.47.
For `CNC(=O)c1cn(-c2ccccc2)c(=O)c2ccccc12` the value was -0.122; for `COCCNc1oc(COc2cccc(C)c2)nc1C#N`, 0.0473; for `Cc1ccccc1NC(=O)COC(=O)CN1C(=O)NC(C)(C)C1=O`, -0.186.
On to `N#CCOc1ccc(C2=NO[C@@H]3[C@@H]4C[C@@H]([C@H]5C(=O)N(c6ccc7c(c6)OCO7)C(=O)[C@@H]45)[C@H]23)cc1`, for which the z-score is -0.00301.
Next, `CC(C)NC(=O)CSc1nc(N)c(NC(=O)c2ccccc2F)c(=O)[nH]1`: -0.204.
Take `COc1nc(/C(N)=N/O)nc(N2CCCCC2)n1`: the z-score was -0.0591.
Next, `CC(c1ccccc1)n1cc(C(=O)NCCN2CCOCC2)nn1` (stereo unspecified): 0.475.
As for `Cc1occc1C(=O)N1CCN(c2ccc(Cl)c(Cl)c2)CC1`, the z-score stood at 1.37.
For `c1ccc(Nc2c(-c3ccco3)nc3ccccn23)cc1` the value was -0.458.
As for `CCc1ccc(CN2CC(C(=O)O)CC2=O)cc1` (stereo unspecified), the z-score was -0.0355.
Next, `Cc1cccc(C)c1NC(=O)C1(NC(=O)c2cnccn2)CCCCC1`: -0.368; `Cc1nc(Cl)c(C#N)cc1-c1ccccc1`: 0.358; `CC(=O)c1cccc(N=C2NC(=O)CS2)c1`: 0.169.
Next, `CC1=C(C(=O)OC(C)C)C(c2cccs2)n2ncnc2N1` (stereo unspecified): -1.01; `CC1CCN(CCCCOc2ccc(C(=O)c3ccccc3)cc2)CC1`: 2.47; `COc1cc(/C=N/NC(=O)CCN2CCN(c3ccccc3)CC2)cc(OC)c1OC`: -0.254.
Next, `COc1cc(C=O)ccc1OCCCOc1ccccc1C(=O)O`: -0.241; `CCCCOCCCNS(=O)(=O)c1ccccc1`: 0.69.
Take `CC(C)(Oc1cccc2ccccc12)C(=O)O`: the z-score was -0.0885.
For `CC(C)(C)C1CCC(C(=O)OCC(=O)c2ccc[nH]2)CC1` (stereo unspecified) the value was -0.197; for `O=S(=O)(/N=C(\Sc1ccc(Cl)cc1)c1ccccc1)c1ccccc1`, -0.32; for `CCC(=O)Nc1c2c(nn1-c1ccc(OC)cc1)CS(=O)C2` (stereo unspecified), -0.0413.
For `CCc1ccccc1NC(=O)Cc1ccc(-n2cccc2)cc1` the value was -0.166; for `CCCn1c(Cc2ccccc2)n[nH]c1=S`, 1.55.
As to `COc1cc(S(=O)(=O)NCc2cccnc2)c(OC)cc1Br`, the z-score was -0.11.
For `COc1cc(/C=C2\SC(=S)N(CC(=O)Nc3ccccn3)C2=O)cc(OC)c1OC` the value was -0.0617; for `COc1ccc(-c2[nH]c(-c3cccc(OC)c3)nc2SCC(=O)NCc2ccco2)cc1`, -0.891; for `CC1CC2(CC(C)(C(=O)CSc3n[nH]c(-c4ccccc4Cl)n3)OC2=O)C(=O)O1` (stereo unspecified), 0.36.
